Assay results taken from the supplement of paper PMC11383711.
The list shows a part of the results. Binding of human antibodies (heavy:light variable regions, tested as scFv in one mRNA-display pool) to influenza hemagglutinin, with or without the stem antibody CR9114 bound first. Score = (mean enrichment − median) / interquartile range of that screen; higher = more enriched, 0 = typical non-binder. Active = above the paper's cut-off per screen: stems 28; unblocked H1 Solomon Islands 5, H1 Michigan 3, H3 5, H5 19, H7 2.85, both B 5; blocked 9, 7, H5 10, H7 10, B Phuket 10, B Lee 11.5. Scores are scaled within each screen and are no affinities; replicates correlate at about 0.6 to 0.9, and antibodies rare in the pool are noisier.

B1: antibody 1D05 (protein)
chain 1: VQLLESGGGLVQPGGSLRLSCAASGFAFNTYAMSWVRQAPGKGLEWVSASGGLHGASYYADSVQGRFTIYRGNSKSTLYLQMNYLRAEDTAVYYCATDLDGDEGTWFENWGQGTLVTVSS
chain 2: EIVMTQSPATLSVSPGERATLSCRASQSLSNNLTWYQQKPGQAPRLLIYGASTRATGLPARFSGSGSGTEFTLTISSLQSEDFAVYFCQQYNNWPPTFGQGTKVEIK
B2: 01.r.01 (protein)
chain 1: QVQLQESGPGLVKPSQTLSLTCTVSGGSISSGSYYWSWIRQPAGKGLEWIGSIYTSGSTDYNPSLKNRVSISIDTSKNHFSLVLSSVTAADTAVYFCARDQWEGAFSYGAGFWGQGAVVTVSS
chain 2: DIQMTQSLSSVSASIGDRVTIICRASQGVGNWLVWYQQKPGKARKLLMYAASTLQTDVPSRVSGRGYGTEFTLTISSEQHEDYANYYCQQAHSQPRTFGQGTKVEVK
B3: K77-2H01 (protein)
chain 1: EVQLVQSGAEVKKPGESLKISCEASGDNFSSYWIAWVRQMPGKGLEWMGIIYPGDSDTRYSPPFQGQVTISADKSIRTAYLQWSSLKASDTAMYYCATSMMSFYYDESDAFRWALAAFDIWGHGTPVTVSS
chain 2: EIVLTQSPGTLSLSPGERATLSCRASQSVASSSLAWYQQKPGQAPRLLIYSTSNRATGIPGRFSGSGSGTDFILTVNRLEPEDFAVYYCQHNDSSPAWSFGQGTKVEI
B4: K77-1F01 (protein)
chain 1: EVQLVESGGGLVQPGGSLRLSCAASGFTFSSYGMNWVRQAPGKGLEWISDISSDRSTIYYADSVKGRFTISRDNAKNSLYLQMNSLRVEDTAVYYCARDFMSYFFDYWGQGTLVTVSS
chain 2: QSALTQPASVSGSPGQSITISCTGTSSDVGAYNYVSWYQQHPGKAPKLLIYDVNNRPSGVSNRFSGSKSGNTASLTISGLQAEDEADYYCNSYTSISTGVFGGGTNVT
B5: SFV018-4D01 (protein)
chain 1: QVQLQESGPGLVKPSETLSLTCSVSGGSISPHYWSWIRQPPGKGLEWIGYIYYAGSTNYSPSLKNRVTISVDTSKNHFSLQLRSVTAADTAVYYCARGGFPAELPPPLDPWGQGNLVTVSS
chain 2: SYELTQPPSVSVSPGQTASITCSGDNLGDKFASWYQQKPGQSPVLVIYQDIRRPSGIPERFSASNSGNTATLTISGTQVMDEADYYCQTWDSSTVLFGGGTKLTVL
B6: 01.ac.01 (protein)
chain 1: QVQVVQSGAEVRKPGASVRLSCKASGYTFDNYYIHWMRQAPGQGLEWMALINPSAGSTIFAQKFHGRVTMTRDTSTSAVHMELSGLRSEDTAVYYCARSQTWGYNIYFDYWGQGTLVTVSS
chain 2: EIVLTQSPVSLSLSPGERATLSCRASQSVSIIYLAWYQQRPGQAPRLLIYGASSRATGIPDRFSGSGCGTDFTLTISRLEHEDSAVYYCQQCGGTYPTFGQGTKVEIK
B7: K77-1D09 (protein)
chain 1: QVQLQESGPGLVKPSETLSLTCTVSDGSVSSSSYFWGWIRQPPGKGLEWIGSIYYTGDTDYNPSLKGRVTISVDSSKNQFSLRLSSLTAADTAVYYCAREGPAWVRYSFDYWGQGSLVTVSS
chain 2: QSALTQPASVSGSPGQSITISCTGTSSDVDDYNYVSWYQQDPGKAPKLIIYHVNKRPSGVSHRFSGSKSGNTASLTISGLQAEDEADYYCSSYTSSNTPVVFGGGTKLTVL
B8: antibody 3E01 (protein)
chain 1: VQLQESGPGLLKPSETLSLICSVSDYSVTTSTSYWGWIRQTPGKGLEWIGSLSYSGFSYYNPSLRSRVTMSFDSSKKQVSLRLNSVTAADTAVYYCAILYGSIIDYWGPGILVTVSS
chain 2: DIQMTQSPSTLSASVGDRVTITCRASQSIRTWLAWYQQKPGKAPKLLISRASILESGDPSRFSGSGSGTEFTFTISSLQPDDFATYYCQHYNNYWWTFGQGTKVEIK
B9: W85-1E07 (protein)
chain 1: EVQLVESGGGLVQPGGSLRLSCAASGFKVGDNYMSWVRQAPGKGLEWVSIIYGGGRTYYADSVKGRFTLSRDNSKNTLSLQMNSLRGEDTAVYYCARDGVAGGEGAYDIWGQGTMVTVSS
chain 2: DIQMTQSPSSLSASVGDRVIITCRASQPISSYLNWYQQKPGKAPNLVIYSASSLQSGVPSRFSGSGSGTDFTLSISNLQPEDFATYYCQQSYSDPYTCGQGTKLEIK
B10: SFV020-5C05 (protein)
chain 1: VQLVESGGGVVQPGRSLRLSCAASGFSFSNYGIHWVRQVPGKGLEWVAVISHAGAYKYYADSVRGRFTISRDNSKNILYLQMNSLRVEDTAVYYCATLGGDIVVVSAERSGYYYGLDVWGQGTTVTVSS
chain 2: DIQMTQSPSTLSASVGDRVTITCRASQSISNRLVWYQQKPGTAPKLLIYQASTLEGEVPSRFSGSGSGTEFTLTITSLQPDDLATYFCQQYNTNSRTFGQGTKVEIK
B11: R95-1H06 (protein)
chain 1: LVQLQESGPGLVKPSETLSLTCTVSGDSFTTYYWSWIRQPPGKGLEWIGYIYTIGRTHYNPALKSRVAISVDTSKNQFSLNLTSVTAADTAVYYCARIRIRGADYPFDHWGQGSLVTVHS
chain 2: SYELTQPPSVSVAPGQTARISCGGDNIGSKNVHWYQQKPGRAPVLVVYDDTDRPSGIPDRFSGSNSGDTATLTITRLEAGDEADYYCHVWDSTGDHQGVFGGGTKLTVL
B12: R95-2F01 (protein)
chain 1: QVQLQESGPGLVKPSETLSLTCTVSGGSISSHYWSWIRQPPGKGLEWIGYIYDSGKTNHNPTLKSRVTISADTSKNQFSLKLSSVTAADTAVYYCASARRYCSSTSCYGLEYYFGMDVWGQGTTVTVSS
chain 2: DIVMTQSPLSLPVTPGEPASISCRSSQSLVHSNGHNYLDWYLQKPGQSPQLLIYLSSSRASGVPDRFSGSGSGTDFTLKINRVEAEDVGVYFCMQALQAPYTFGQGTRLEIK

Each binder was assayed against Influenza A H1N1 A/Michigan/45/2015 hemagglutinin ectodomain (assay: mRNA display binding score; higher = more enriched on the antigen). Conditions: antigen blocked with: 2 µM CR9114 IgG.
Description: (§1)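 A pool of natively paired antibodies, displayed as scFv on mRNA, was selected once on antigen-coated beads and sequenced before and after; two replicates.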

Binder	mRNA display binding score
B1	inactive: -0.293
B2	inactive: -0.271
B3	inactive: 0.246
B4	inactive: 0.422
B5	inactive: -0.329
B6	inactive: -0.46
B7	inactive: -0.198
B8	inactive: -0.499
B9	inactive: -0.254
B10	active: 8.91
B11	inactive: -0.22
B12	inactive: -0.555

Same assay, conditions: antigen blocked with: nothing

Binder	mRNA display binding score
B1	inactive: -0.53
B2	inactive: -0.771
B3	inactive: -0.153
B4	inactive: 0.789
B5	inactive: -0.738
B6	inactive: -0.135
B7	inactive: -0.6
B8	inactive: -0.35
B9	inactive: -0.487
B10	inactive: 0.182
B11	inactive: -0.696
B12	inactive: -0.168

What follows are binders tested against Influenza A H1N1 A/Solomon Islands/3/2006 hemagglutinin ectodomain in the same assay as above. Conditions: antigen blocked with: 2 µM CR9114 IgG.
Description: as §1

Binder	mRNA display binding score
B1	inactive: 0.137
B2	inactive: -0.366
B3	inactive: 0.977
B4	inactive: -0.0816
B5	inactive: -0.154
B6	inactive: -0.657
B7	inactive: -0.541
B8	inactive: -0.375
B9	inactive: -0.00117
B10	inactive: 0.205
B11	inactive: 0.108
B12	inactive: -0.288

Same assay, conditions: antigen blocked with: nothing

Binder	mRNA display binding score
B1	inactive: 0.542
B2	inactive: -0.582
B3	inactive: -0.382
B4	inactive: 0.31
B5	inactive: -0.153
B6	inactive: 0.325
B7	inactive: 0.229
B8	inactive: -0.237
B9	inactive: -0.121
B10	inactive: -0.199
B11	inactive: -0.381
B12	inactive: -0.0894

The binders below were run against Influenza A H3N2 A/Singapore/INFIMH-16-0019/2016 hemagglutinin ectodomain in the same assay as above. Conditions: antigen blocked with: nothing.
Description: as §1

Binder	mRNA display binding score
B1	inactive: -0.303
B2	inactive: -0.545
B3	inactive: 0.491
B4	inactive: 0.424
B5	inactive: -0.492
B6	inactive: -0.444
B7	inactive: -0.553
B8	inactive: -0.457
B9	inactive: -0.474
B10	inactive: -0.0612
B11	inactive: -0.147
B12	inactive: -0.334

These binders were tested against Influenza A H5N1 A/Qinghai/1A/2005 hemagglutinin ectodomain in the same assay as above. Conditions: antigen blocked with: 2 µM CR9114 IgG.
Description: as §1

Binder	mRNA display binding score
B1	inactive: -0.0531
B2	inactive: -0.89
B3	inactive: 0.465
B4	inactive: 0.124
B5	inactive: -1
B6	inactive: -0.324
B7	inactive: -0.454
B8	inactive: -0.774
B9	inactive: -0.106
B10	inactive: -0.0297
B11	inactive: -0.456
B12	inactive: -0.227

Same assay, conditions: antigen blocked with: nothing

Binder	mRNA display binding score
B1	inactive: -0.358
B2	inactive: -0.66
B3	inactive: -0.127
B4	inactive: 0.437
B5	inactive: -0.415
B6	inactive: -0.291
B7	inactive: -0.139
B8	inactive: -0.0636
B9	inactive: -0.395
B10	inactive: -0.305
B11	inactive: -0.606
B12	inactive: -0.196

What follows are binders tested against Influenza A H7N9 A/Shanghai/2/2013 hemagglutinin ectodomain in the same assay as above. Conditions: antigen blocked with: 2 µM CR9114 IgG.
Description: as §1

Binder	mRNA display binding score
B1	inactive: 0.0528
B2	inactive: -0.502
B3	inactive: -0.49
B4	inactive: -0.0225
B5	inactive: 1.68
B6	inactive: -0.463
B7	inactive: -0.434
B8	inactive: 0.776
B9	inactive: 0.287
B10	inactive: -0.245
B11	inactive: -0.27
B12	inactive: -1.11

Same assay, conditions: antigen blocked with: nothing

Binder	mRNA display binding score
B1	inactive: -0.2
B2	inactive: -0.765
B3	inactive: -0.0665
B4	inactive: 0.719
B5	inactive: -0.551
B6	inactive: -0.0735
B7	inactive: -0.525
B8	inactive: -0.389
B9	inactive: -0.486
B10	inactive: -0.149
B11	inactive: -0.583
B12	inactive: -0.269

Each binder was assayed against Influenza B/Lee/1940 hemagglutinin ectodomain in the same assay as above. Conditions: antigen blocked with: 2 µM CR9114 IgG.
Description: as §1

Binder	mRNA display binding score
B1	inactive: -0.353
B2	inactive: 0.0309
B3	inactive: -0.689
B4	inactive: -0.287
B5	inactive: -0.0489
B6	inactive: 0.23
B7	inactive: -0.686
B8	inactive: 1.01
B9	inactive: -0.238
B10	inactive: -0.473
B11	inactive: 0.738
B12	inactive: -0.0771

Same assay, conditions: antigen blocked with: nothing

Binder	mRNA display binding score
B1	inactive: -0.343
B2	inactive: -0.344
B3	inactive: -0.247
B4	inactive: -0.172
B5	inactive: 0.00469
B6	inactive: 0.0347
B7	inactive: -0.344
B8	inactive: -0.0783
B9	inactive: 0.787
B10	inactive: -0.0715
B11	inactive: -0.393
B12	inactive: -0.0741

What follows are binders tested against Influenza B/Phuket/3073/2013 hemagglutinin ectodomain in the same assay as above. Conditions: antigen blocked with: 2 µM CR9114 IgG.
Description: as §1

Binder	mRNA display binding score
B1	inactive: -0.48
B2	inactive: -0.739
B3	inactive: -0.206
B4	inactive: 0.242
B5	inactive: -0.432
B6	inactive: -0.203
B7	inactive: -0.552
B8	inactive: -0.366
B9	inactive: -0.000368
B10	inactive: 0.0674
B11	inactive: -0.111
B12	inactive: -0.498

Same assay, conditions: antigen blocked with: nothing

Binder	mRNA display binding score
B1	inactive: -0.144
B2	inactive: -0.431
B3	inactive: 0.171
B4	inactive: -0.0756
B5	inactive: -0.205
B6	inactive: -0.123
B7	inactive: -0.192
B8	inactive: -0.203
B9	inactive: -0.219
B10	inactive: -0.294
B11	inactive: -0.0775
B12	inactive: -0.333
